Source: the supplement of paper PMC7125110
± gives the standard error. This sample is rich in variants without activity.

B1: glmS ribozyme (parent)
chain: AUAAAAGCGCCAGAACUACAGAAAUGUAGUUGACGAGGAGGAGGUUUAUCGAAUUUUCGGCGGAUGCCUCCAAA

What was measured:
Conditions in all cases: with glucosamine-6-phosphate
glucosamine-6-phosphate [1] = variants of: B1; test: self-cleavage kobs at 640 uM GlcN6P; higher = faster cleavage; RNA array
Procedure, shortened: (§1)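 Barcoded glmS ribozyme variants on sequenced MiSeq chips were transcribed in situ by E. coli RNA polymerase and tracked through a hybridised Cy3 probe at 37 °C. Glucosamine-6-phosphate (40 μM to 10 mM) in HEPES/KCl/Mg(OAc)2 buffer was flowed in, and tiles were imaged over ~14 h. Signals were normalised to baseline and to non-cleaving reference variants; per-tile medians were fit to one- or two-exponential decays to give kobs. kcat and KM came from weighted Michaelis–Menten fits across concentrations.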

glucosamine-6-phosphate [2] = variants of: B1; test: self-cleavage kobs at 160 uM GlcN6P; higher = faster cleavage; RNA array
Procedure, shortened: as §1

glucosamine-6-phosphate [3] = variants of: B1; test: self-cleavage kobs at 2500 uM GlcN6P; higher = faster cleavage; RNA array
Procedure, shortened: as §1

glucosamine-6-phosphate [4] = variants of: B1; test: self-cleavage kobs at 10000 uM GlcN6P; higher = faster cleavage; RNA array
Procedure, shortened: as §1

Row | Variant | self-cleavage kobs at 640 uM GlcN6P (glucosamine-6-phosphate [1]) [s⁻¹] | self-cleavage kobs at 160 uM GlcN6P (glucosamine-6-phosphate [2]) [s⁻¹] | self-cleavage kobs at 2500 uM GlcN6P (glucosamine-6-phosphate [3]) [s⁻¹] | self-cleavage kobs at 10000 uM GlcN6P (glucosamine-6-phosphate [4]) [s⁻¹]
1 | C34A A39G G51C U56G G60U | < 1e-05 | < 1e-05 | < 1e-05 | 
2 | C34A G41C G66C C67A C68A | < 1e-05 |  |  | 
3 | C34A U56A G60U | < 1e-05 | < 1e-05 |  | 
4 | A33U G59C G63U | < 1e-05 |  | < 1e-05 | 
5 | G37C G41U C67U | < 1e-05 | < 1e-05 |  | 
6 | C34U G51A U57G U69G | 0.000271 ± 9.8e-05 |  |  | 0.000296 ± 7.8e-05
7 | G37C G41C | < 1e-05 | < 1e-05 | < 1e-05 | 
8 | A36G U69G | 4.85e-05 ± 1.9e-05 | 3.18e-05 ± 1.6e-05 |  | 
9 | G35C U49G C71A | < 1e-05 |  |  | 
10 | G38C G44C A64G | < 1e-05 |  |  | 
11 | A36U U47A G62U | < 1e-05 |  |  | 
12 | A33U U45G U47A C67A C68G | < 1e-05 |  | < 1e-05 | 
13 | A36C U45C | < 1e-05 | < 1e-05 | < 1e-05 | 
14 | G35U G40A A52U | < 1e-05 |  | < 1e-05 | 
15 | G35U A53U | < 1e-05 |  |  | 
16 | A36U A39U C71U | < 1e-05 |  |  | 
17 | G38U A42C G62A | < 1e-05 |  |  | 
18 | G37A G38U A53G | < 1e-05 |  |  | 
19 | G38C U49C | < 1e-05 |  | < 1e-05 | 
20 | C34G G44U C50U C71U | < 1e-05 |  | < 1e-05 | 
21 | G35U G66A | < 1e-05 | < 1e-05 | < 1e-05 | < 1e-05
22 | C34A A39U C58A | < 1e-05 | < 1e-05 |  | 
23 | G37C G38A G51A | < 1e-05 |  |  | 
24 | G35U G40U A42G G59U U65A U69G | < 1e-05 |  | < 1e-05 | 

Row | Variant | self-cleavage kobs at 640 uM GlcN6P (glucosamine-6-phosphate [1]) [s⁻¹] | self-cleavage kobs at 160 uM GlcN6P (glucosamine-6-phosphate [2]) [s⁻¹] | self-cleavage kobs at 2500 uM GlcN6P (glucosamine-6-phosphate [3]) [s⁻¹] | self-cleavage kobs at 10000 uM GlcN6P (glucosamine-6-phosphate [4]) [s⁻¹]
25 | C34A C68A | < 1e-05 | < 1e-05 | < 1e-05 | 
26 | G38C U46A | < 1e-05 | < 1e-05 | < 1e-05 | 
27 | C34U A36C A42U | < 1e-05 | < 1e-05 | < 1e-05 | 
28 | A36C G38A | < 1e-05 | < 1e-05 |  | < 1e-05
29 | A36G A42U C71U | < 1e-05 |  | < 1e-05 | 
30 | G35C G40A G43U | < 1e-05 |  |  | 
31 | G38C G41A C58A | < 1e-05 | < 1e-05 | < 1e-05 | 
32 | A36C U54G A64G | < 1e-05 |  |  | 
33 | G35A A39C C71A | < 1e-05 |  |  | 
34 | A36G G43U A53C | < 1e-05 | < 1e-05 |  | 
35 | G35U A42U U54A A64G | < 1e-05 |  | < 1e-05 | 
36 | C34G G40U | < 1e-05 |  |  | < 1e-05
37 | G38C U45C C70A | < 1e-05 |  | < 1e-05 | 
38 | G35C A36G U49A | < 1e-05 | < 1e-05 | < 1e-05 | 
39 | G38C G60U U65C | < 1e-05 |  | < 1e-05 | < 1e-05
40 | A36U U55C | < 1e-05 | < 1e-05 |  | 
41 | G38C U47A G63C | < 1e-05 |  |  | 
42 | G37C G43C G51A | < 1e-05 |  | < 1e-05 | 
43 | A36G G51A G62C | < 1e-05 |  | < 1e-05 | 
44 | G35C A39C G43C U56A | < 1e-05 |  |  | 
45 | A36C U47G G51C | < 1e-05 |  |  | 
46 | G35C A53U G60U | < 1e-05 |  |  | < 1e-05
47 | G38C U55A G59U | < 1e-05 |  | < 1e-05 | 
48 | G37C U55G C67U | < 1e-05 |  |  | 

Row | Variant | self-cleavage kobs at 640 uM GlcN6P (glucosamine-6-phosphate [1]) [s⁻¹] | self-cleavage kobs at 160 uM GlcN6P (glucosamine-6-phosphate [2]) [s⁻¹] | self-cleavage kobs at 2500 uM GlcN6P (glucosamine-6-phosphate [3]) [s⁻¹] | self-cleavage kobs at 10000 uM GlcN6P (glucosamine-6-phosphate [4]) [s⁻¹]
49 | G38C U45A C71A | < 1e-05 |  |  | 
50 | G38A A42C U49C | < 1e-05 |  | < 1e-05 | 
51 | A33U U54A G60C | < 1e-05 |  | < 1e-05 | 
52 | G35C G41U C58U G62A U69G | < 1e-05 |  |  | < 1e-05
53 | C34A A39U | < 1e-05 |  |  | 
54 | G35C G37U | < 1e-05 |  |  | 
55 | A36U A48C C67G | < 1e-05 |  |  | 
56 | A36C U56A | < 1e-05 | < 1e-05 | < 1e-05 | 
57 | A36C U56G | < 1e-05 | < 1e-05 |  | 
58 | G37A G40C C50G | < 1e-05 |  | < 1e-05 | 
59 | C34A G37U A52U | < 1e-05 |  | < 1e-05 | 
60 | G35U U57A G59C C70G | < 1e-05 |  | < 1e-05 | 
61 | C34G A36U A42C | < 1e-05 |  | < 1e-05 | 
62 | G35C G66U | < 1e-05 | < 1e-05 | < 1e-05 | 
63 | G37U G40U C61U C68U | < 1e-05 |  |  | < 1e-05
64 | G38C G66C | < 1e-05 | < 1e-05 | < 1e-05 | 
65 | A36U U46C C68G | < 1e-05 |  | < 1e-05 | 
66 | G38U A39U | < 1e-05 | < 1e-05 |  | 
67 | C34U U46G C68G | 0.000568 ± 0.00025 |  | < 1e-05 | 
68 | C34U G41C | < 1e-05 | < 1e-05 | < 1e-05 | < 1e-05
69 | G35U A48G C50U | < 1e-05 |  |  | < 1e-05
70 | G35U A36C A39G A48U C50U | < 1e-05 |  |  | < 1e-05
71 | A36U A39U U69A | < 1e-05 |  | < 1e-05 | 
72 | G35C G38C G41A | < 1e-05 | < 1e-05 | < 1e-05 | 

Row | Variant | self-cleavage kobs at 640 uM GlcN6P (glucosamine-6-phosphate [1]) [s⁻¹] | self-cleavage kobs at 160 uM GlcN6P (glucosamine-6-phosphate [2]) [s⁻¹] | self-cleavage kobs at 2500 uM GlcN6P (glucosamine-6-phosphate [3]) [s⁻¹] | self-cleavage kobs at 10000 uM GlcN6P (glucosamine-6-phosphate [4]) [s⁻¹]
73 | C34U G35C C50U C67A | < 1e-05 |  | < 1e-05 | 
74 | C34A U46C | < 1e-05 | < 1e-05 | < 1e-05 | 
75 | C34U G40C A42G U49G U55C | < 1e-05 |  | < 1e-05 | 
76 | G38C U54A | < 1e-05 |  | < 1e-05 | 
77 | G38C G66C C70U | < 1e-05 |  |  | 
78 | C34G G43A C61A U65G | < 1e-05 |  | < 1e-05 | 
79 | C34U A53C U56A U69C | < 1e-05 |  |  | 
80 | A36G A39C U47G | < 1e-05 |  | < 1e-05 | < 1e-05
81 | A36G G38U U57A G59C | < 1e-05 |  | < 1e-05 | 
82 | G35U U47A G63A | < 1e-05 |  | < 1e-05 | 
83 | G37A A48C G59A | < 1e-05 |  |  | 
84 | G38C U49G G59U U65G | < 1e-05 |  |  | 
85 | G37A G62U | < 1e-05 | < 1e-05 | < 1e-05 | < 1e-05
86 | C34U G35A C71U | < 1e-05 | < 1e-05 |  | 
87 | G38A C61U C68U | < 1e-05 |  |  | 
88 | G35C C67G C71G | < 1e-05 |  |  | 
89 | G35C G59U G63U C70U | < 1e-05 |  |  | 
90 | G37U A48U A52U | < 1e-05 |  | < 1e-05 | 
91 | G38A G41U A42C U45C U54G C68G | < 1e-05 |  |  | 
92 | G35C G44A U56A | < 1e-05 |  | < 1e-05 | 
93 | G38A G44C C67U C71A | < 1e-05 |  | < 1e-05 | 
94 | A36U G51C | < 1e-05 | < 1e-05 |  | < 1e-05
95 | G37A A53U C61U | < 1e-05 | < 1e-05 | < 1e-05 | 
96 | G35U G37C | < 1e-05 | < 1e-05 | < 1e-05 | 

Row | Variant | self-cleavage kobs at 640 uM GlcN6P (glucosamine-6-phosphate [1]) [s⁻¹] | self-cleavage kobs at 160 uM GlcN6P (glucosamine-6-phosphate [2]) [s⁻¹] | self-cleavage kobs at 2500 uM GlcN6P (glucosamine-6-phosphate [3]) [s⁻¹] | self-cleavage kobs at 10000 uM GlcN6P (glucosamine-6-phosphate [4]) [s⁻¹]
97 | A36C A42U G44C A52U | < 1e-05 |  |  | 
98 | A36U G44A C67U | < 1e-05 |  | < 1e-05 | 
99 | G35U G59A A64G C71U | < 1e-05 |  |  | 
100 | G35C G41A U49A C58G C71U | < 1e-05 |  |  | 
101 | G35A G41A U45A | < 1e-05 |  | < 1e-05 | < 1e-05
102 | G38U A42U U56G | < 1e-05 | < 1e-05 |  | < 1e-05
103 | A36U G43A | < 1e-05 |  | < 1e-05 | < 1e-05
104 | C34A G44C | < 1e-05 | < 1e-05 | < 1e-05 | 
105 | G38U G41U U57A C68A | < 1e-05 |  | < 1e-05 | < 1e-05
106 | A36G A42C | < 1e-05 | < 1e-05 | < 1e-05 | < 1e-05
107 | G35C G62A A64G | < 1e-05 | < 1e-05 |  | 
108 | G38A G44U C50A | < 1e-05 |  |  | 
109 | G37A U46G G63U | < 1e-05 |  |  | < 1e-05
110 | G35A A52U C61A | < 1e-05 |  |  | 
111 | G35C G51A | < 1e-05 |  |  | 
112 | A36C G37A A48U | < 1e-05 |  |  | 
113 | C34U A64U G66C | < 1e-05 |  |  | 
114 | G35U U47C C50A G51C C58A G63A U69A | < 1e-05 |  |  | 
115 | A36U A53C | < 1e-05 | < 1e-05 |  | < 1e-05
116 | A36C A39C | < 1e-05 | < 1e-05 |  | < 1e-05
117 | G35U G38C G66U | < 1e-05 |  |  | 
118 | G35A G44A A64C | < 1e-05 |  | < 1e-05 | 
119 | C34U G40C G62U | < 1e-05 |  |  | 
